Consider 56 variants from the RNAGym collection of RNA variant scans (doi:10.7554/elife.90254).

Read counts are not given, so values of variants with three or more changes are uncertain.

B1: LINE1-mini (parent)
chain: GGCAGAGCUCAACACAGCGUGGCAAAGUGGCUGUGGCUAGACUGCC

Variants of B1 are the subject of the series. Put plainly: self-cleavage, relative activity (ratio to wild type); higher = more cleavage; in vitro, sequencing; the parent is a self-cleaving ribozyme.
With GGCAGAGCUCAACACAGCGUGGCGUAGUGUCUGUGGCUAGACUGCC, the self-cleavage is 0.56.
The value for GGCAGACCUCAAUACAGCGUGGCAAAGUGGCUGUGGGUAGACUCCC was 0.03; that for GGCAGAGCUCAACACAGGGUGGCAAAGUGGCGCUGACUAGAUUGCC was 0.04; that for GGCAGAGCUCAACACACCGUGGCAAAGUGGCUGAGGCUAGUCUGCC was 0.03.
The value for GGCACAGCUCCACACAGCGAGGCAAAGUGGCUGUGGCUAGACUGCC was 0.03; that for GGCAGAGCCCAACACCGCGUGGCAAACUGGCUGUCGAUAGACUGCC was 0.1.
The value for GGAAGAGCUCAACACAGCGGGGCAAAGUGGCUGUGGCAAGACUACC was 0.12.
Regarding GGCAGAGCCAAACACAGCGUGUCCAAGCGGCUGUCACUAGCAUGCC, the self-cleavage came to 0.01.
The value for GGCAGCGCACAUCACAGCGUGGCAAAGUGGCUGUGGCUAGACUGCC was 0.29; that for CGCAGAGCUUAACACAGCGUGUCGAAGUGGCUGUGGCUAGACUGCC was 0.01.
In the case of GGCAGAGCUCAACACAGCGGGGCAAAGUGGCUGUGGCAAGGCUUCC, the self-cleavage is 0.03.
GGCAGAGCUCAACACAGCGUGACAAAUUGGCUGUGGAUAGACUGGC: the self-cleavage amounted to 0.11.
The value for GGCAGAGCUCGGCACAGCGUGGCAAAGUGGCUGUGGUUAGACUGCC was 0.01; that for GGCCAAGCUCAGCACAGCGUGGCAAAGUAGCUGUGGCUAGACUGCC was 0.18.
Regarding CGCAGAGCUCAACACAGCAUGGCAAAGUGGCUGUGGCUAGACUGAC, the self-cleavage amounted to 0.05.
For GGCAGAGCACAUCACAGCGUGGCAAAGUGGCUGUGUCUAGACUGCC, the self-cleavage was 0.02.
The value for GGCAAAGCUCAACAGAGCGUGGCAAAGUUGCUGAGGCUAGACUGCC was 0.03.
The value for GGCAGAGUUCAACACAGUCUGGCAAACUGGCUGUGACUAGAAUGCC was 0.07.
On to GGCUGAGAUCAACACAGCGUGGCAAAGUGGCUGUGGCUGAACUGCC, for which the self-cleavage was 0.09.
The value for GGACGAGCUCAACUCAGGGUGGCGAAGUGGGUGUGCCUAGACUUUC was 0.02; that for GCCAGAGCUCUACACAGCGUGGCAAAGUGGCUGUGGAUAUACUGCC was 0.01; that for GUCAGAGCCCAACACAGCGUGGCAAAUUGGCUGCGGCUCGACUGCC was 0.02.
The value for GGCAGAGCUCAAAACAGCGUGGCAAAGUGGAUGUGGCUACACUGCC was 0.13; that for CGCAGAUCUCAACACAGCGUGGCAAAGUGGCUGUGACUAGACUGCC was 0.01.
For the variant GGCAGAGCUAAACACAGCGUGCCAACGUGGCCGUGGCUAGACUGCC, the self-cleavage stood at 0.04.
For GGCAGAGCUCUACACAGCGUGGCCAAGUGGAUGUGCCUAGAUUGCC, the self-cleavage is 0.02.
The value for GGCACAGCUCAACACAGCGUGGCAAAGUGGCUGUGGAGAGACUGCC was 0.04; that for GCCAGAGCUCAACACACCGUGGCAAAGUGGCUGUGGCUAGAAUGGC was 0.05.
As to GGCAGAGGUCAACACAGUUUGGCAAAGUGUCUGUGGCUAGAAAGCC, the self-cleavage was determined as 0.06.
Consider GGCAAAGCUCAAGACAGCGUAGCAAAGUGGUUGUGGCUAGACUGCC, for which the self-cleavage stood at 0.06.
The value for GGCAGAGUUAAAAACAUCGUGGCAAAGUGGCUGUGGCUAGACUACC was 0.02.
For GGCAGAGCUCAACACAGCCUGGCAAAGUGGCUCUGACUAGACUGCC, the self-cleavage is 0.06.
With GGCAGAGCUCAACACAGCUUGGCAAAGUGGCUGUGACUAGUCGGCC, the self-cleavage turned out to be 0.04.
Take GGCAGAUCACAACACAGCGUGGCAAAGUGGCCGUGGCUAGACUGCC: the self-cleavage was 0.15.
The value for GGCAGGGUUCAACACAGCGUGGCAUAGUGGGUGCGGCUAGACUGCC was 0.24; that for GGCAGAGUUCCACCCUGCGUGGCAAAGUGGCUGUGGCUAGACUGCC was 0.01; that for GGCAGAGCUCAACACUGCGUGGCAAAGUGGCUGUGGCAAGACUUCC was 0.03.
On to GGCAGAGCUCAACACAGCGUGGCAAAGUGCUUGUGGCUGGAUUGCC, for which the self-cleavage was 0.11.
As for ACCAGAGCUCGACAUAGCGUGGCAAAGUGGCUGUGGCUAGCCUGCA, the self-cleavage amounted to 0.
The value for GGCAGAGCUCAACACAGCGUGUGAAAGUGGGUGUGGCUAGACUGCA was 0.1; that for GGAAGAGCUAAACACAGAGUGGCAAAGUGGCUGUGGCUAGACUGCC was 0.08.
The value for GGAAGAGCUCAACACAGCGUGGCAAAGUGGGUGUGGCUAUACUGCC was 0.13; that for GGUAGAGCUCAAGACUUAGUGACAAAGUGGCUGUGGCAAGACUGCC was 0.12.
The value for GGGAGAGCUCAACCCAGCGUGGCAAAGUGGCUGGGGCUAGACUGCC was 0.03.
Take GGCAGAGCUCAACACAGCGUGUCAAAGUGGCUGUCCCUAGACUGCC: the self-cleavage amounted to 0.07.
Turning to GGCAGAGCUCAACACAGCUAGGCAAAGUGGCGGGGGCUAGACUCCC, the self-cleavage amounted to 0.07.
The value for GGCAGAGCUCCACACAGCGUGGCAAAGUGGGAGUGGCUAAACUGCC was 0.02.
The value for GGCACAGUACAACACAGCGUGGCAAAGUGGCUGUGUCUAGACUGCC was 0.05.
With GGCAGAUCUCUACACAGCGUGGCAAAGUGGAUGUGGCUAGACUGCC, the self-cleavage turned out to be 0.01.
Take GGCAGAGCUCAACACAGCGUGGCGAAGGGGCUGUGGCGAGGCUGCC: the self-cleavage came out at 0.02.
Regarding GGCAGAGCUCAACACAGCCUGGCAAAGUGGCUGUGGCUUCACUGCC, the self-cleavage was 0.12.
The value for GGUAGAGCUCUACAAAGAGUGGCAAAGUGGCUGUGGCUAGACUGUC was 0.01; that for GGCAGAGCUCAACACACCGUGGUAAAGUGGGUGUGGCUAGACUGCC was 0.08; that for GGCAGAGAUCAACACAACGUGGCAAAGUGGCUGUGGCUAAACUGCG was 0.22.
Turning to GUCAGAGCUCAACACAGCGUGGCAAAGUGACUGUGGCUAGACGGCA, the self-cleavage turned out to be 0.01.
For AGCAGAGCGCAACACAGAGUGGCAAAGUGGCUGUGUCUAGACUGCC, the self-cleavage worked out at 0.57.
